# Results: PubChem BioAssay AID493035 (The Scripps Research Institute Molecular Screening Center, 2011)
# “And” between values parts separate entries of the source, which are not always exact repeats. Equal entries are not always repeated. Among all 2,000 compounds or so, about 45 (2%) were called active.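 Rule for the calls: active = inhibition above the mean of all tested compounds plus 3 SD (cut at about 49% in these data); inactive = the rest.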 The list shows a part of the results. Where a SMILES comes first, the peptide text is derived from it. [ ]: non-standard residue; d: D form. ξ: configuration not given here. ξV = CC(C)C(N)C(=O)O
# Target: Perilipin-5 (Homo sapiens) + 1-acylglycerol-3-phosphate O-acyltransferase ABHD5 (Homo sapiens) (UniProt Q00G26+Q8WTS1)
# Chain of UniProt Q00G26 (Q00G26 whole entry, looked up): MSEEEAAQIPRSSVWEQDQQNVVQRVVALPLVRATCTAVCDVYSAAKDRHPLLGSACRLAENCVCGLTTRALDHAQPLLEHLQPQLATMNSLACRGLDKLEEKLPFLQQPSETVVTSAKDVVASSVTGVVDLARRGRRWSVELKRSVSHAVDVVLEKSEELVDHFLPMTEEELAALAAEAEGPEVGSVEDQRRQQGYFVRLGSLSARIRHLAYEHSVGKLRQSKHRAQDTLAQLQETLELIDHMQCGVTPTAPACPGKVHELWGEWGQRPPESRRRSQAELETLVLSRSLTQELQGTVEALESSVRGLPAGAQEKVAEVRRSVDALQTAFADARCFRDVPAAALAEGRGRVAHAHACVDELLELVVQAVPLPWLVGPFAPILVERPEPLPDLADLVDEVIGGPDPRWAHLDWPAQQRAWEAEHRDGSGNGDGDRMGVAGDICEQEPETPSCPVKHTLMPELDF
# Chain of UniProt Q00G26 (Q8WTS1 whole entry, looked up): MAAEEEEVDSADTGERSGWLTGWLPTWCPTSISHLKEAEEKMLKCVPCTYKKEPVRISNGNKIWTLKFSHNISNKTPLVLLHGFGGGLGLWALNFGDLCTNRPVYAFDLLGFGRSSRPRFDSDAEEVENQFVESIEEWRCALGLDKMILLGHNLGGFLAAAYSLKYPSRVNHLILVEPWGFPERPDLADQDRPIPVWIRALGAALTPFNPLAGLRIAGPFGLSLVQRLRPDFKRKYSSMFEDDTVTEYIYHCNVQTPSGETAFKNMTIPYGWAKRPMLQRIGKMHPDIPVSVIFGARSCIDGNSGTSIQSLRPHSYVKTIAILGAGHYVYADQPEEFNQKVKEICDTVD
# Experiment: ABHD5-PLIN5 interaction inhibitors, pilot screen, cell lysate, split luciferase complementation, luminescence, NIH validation set (AID 493035);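 note: 0% = DMSO only wells while the 100% control is not stated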
# Conditions: split G. princeps luciferase complementation, lysates, 4 h; at 7.9 µM, active compounds read high
row,Compound,inhibition
1,CN(C)CCCN1c2ccccc2CCc2ccccc21,inactive: -8.22%
2,COc1ccc2cc(C(=O)OC(C)C)sc(=O)c2c1OC,inactive: 2.52%
3,C[C@H]1O[C@H]1P(=O)(O)O,inactive: 0.56%
4,CCOC(=O)c1ccc(N2C(=O)C(CC(N)=O)N(CCc3ccc(OC)c(OC)c3)C2=S)cc1 (configuration not stated),inactive: 5.64%
5,COc1ccc2[nH]cc(CCNC(=O)C3CCCNC3=O)c2c1 (configuration not stated),inactive: -8.85%
6,CC1COc2c(N3CCN(C)CC3)c(F)cc3c(=O)c(C(=O)O)cn1c23 (configuration not stated),inactive: -4.62%
7,CCN(CC)C(=O)c1sc(NC(=O)c2c(OC)cccc2OC)c(C#N)c1C,inactive: -4.18%
8,O=C(O)/C=C/c1cnc[nH]1,inactive: -5.36%
9,NCc1ccccc1COc1ccccc1,inactive: 1.14%
10,COCCCNc1nc2c([nH]1)c(=O)[nH]c(=O)n2C,inactive: -7.06%
11,CC(=O)OCC[N+](C)(C)C,inactive: -7.72% and inactive: -5.15%
12,CC[n+]1ccc2cc(OC)c(OC)cc2c1Cc1ccc(OC)c(OC)c1,inactive: -6.43%
13,O=C(/C=C/c1ccc2c(c1)OCO2)c1ccccn1,active: 55.7%
14,Cn1c(=O)c(C(=O)NCCO)c(O)c2ccccc21,inactive: -4.23%
15,CN1C(=O)C(O)(CC(=O)/C=C/C=C/c2ccccc2)c2ccccc21 (configuration not stated),inactive: 10.8%
16,Cn1cc(C2N3CC4(C)CN2CC(C)(C3)C4=O)c2ccccc21 (configuration not stated),inactive: -3.41%
17,OCCN(CCO)c1ccc2ccccc2c1,inactive: -10.7%
18,CN(C)[C@@H]1C(=O)C(C(N)=O)=C(O)[C@@]2(O)C(=O)C3=C(O)c4c(O)ccc(Cl)c4[C@@H](O)[C@H]3C[C@@H]12,inactive: 0.22%
19,CC(C)(C)C(=O)NC(=S)NNC(=O)c1ccncc1,inactive: -6.37%
20,CC(C)Oc1cccc(C(=O)N2CCCC2)c1,inactive: -2.57%
21,O=S(=O)(CCc1nc2ccccc2[nH]1)c1ccc(Cl)cc1,inactive: -10.2%
22,C[N+](C)(C)CCOP(=O)([O-])OC[C@H](O)CO,inactive: 1.67%
23,CC(=O)NC(Cc1c[nH]c2ccccc12)C(=O)N/N=C/c1ccccc1 (configuration not stated),inactive: -0.25%
24,CN(C)C(=O)CCCCCCCCC(=O)N(C)C,inactive: -2.31%
25,Cc1nc(NCc2ccco2)c(C#N)c2c1COC(C)(C)C2,inactive: -11.6%

row,Compound,inhibition
1,COc1ccc(-c2nc(NC(C)=O)sc2-c2ccc(OC)cc2)cc1,inactive: 2.96%
2,CC(C)(C)NCC(O)COc1cccc2c1C[C@H](O)[C@H](O)C2 (some centres not stated),inactive: 0.05%
3,COCCc1ccc(OCC(O)CNC(C)C)cc1 (configuration not stated),inactive: -9.46%
4,O=C1CN(O)C=C2N=c3ccccc3=C2N1c1ccc([N+](=O)[O-])cc1,inactive: 6.34%
5,CC(=O)NC(C(=O)NCC(N)=O)C(C)C (configuration not stated) (Ac-[ξV]-Gly-NH2),inactive: -1.32%
6,CC(C)Cc1ccc(C(C)C(=O)O)cc1 (configuration not stated),inactive: 0.26%
7,CC(C)NC(=O)c1ccc(C(C)C)cc1,inactive: 8.97%
8,O=C1C2C3C=CC(C4CC34)C2C(=O)N1/N=C/c1ccc(-c2ccc([N+](=O)[O-])cc2)o1 (configuration not stated),inactive: -2%
9,c1ccc(Nc2cccc3c(Nc4ccccc4)cccc23)cc1,inactive: 8.61%
10,COc1cc(C(=O)Nc2ccc(N(C)C)cc2)c([N+](=O)[O-])cc1OC,inactive: 14.1%
11,O=C1[C@@H]2CSCN2C(=O)CN1Cc1ccc(F)cc1,inactive: -11.8%
12,C=C(C)C(=O)Nc1ccc(NC(C)C)cc1,inactive: 6.38%
13,C#C[C@]1(O)CC[C@H]2[C@@H]3CCC4=C(CCC(=O)C4)[C@H]3CC[C@@]21C,inactive: 5.58%
14,CC(C)(C)NCC(O)c1cc(O)cc(O)c1 (configuration not stated),inactive: -1.72%
15,COc1ccc(Cc2nc(-c3ccc(Br)cc3)no2)cc1,inactive: -14.7%
16,CCc1oc2ccccc2c1C(=O)c1cc(Br)c(O)c(Br)c1,active: 50.7%
17,NCCCC(N)(C(=O)O)C(F)F (configuration not stated),inactive: -8.38%
18,COc1cc(/C=C(\C#N)C(=O)N2CCc3ccccc32)ccc1O,active: 50.3%
19,Cc1ccccc1C(OCCN(C)C)c1ccccc1 (configuration not stated),inactive: -0.63%
20,CC(=O)SC1CC2=CC(=O)CCC2(C)C2CCC3(C)C(CCC34CCC(=O)O4)C12 (configuration not stated),inactive: 10.8%
21,COC(=O)C1=C(C)NC(C)=C(C(=O)OCCN(C)Cc2ccccc2)C1c1cccc([N+](=O)[O-])c1 (configuration not stated),inactive: -8.85%
22,COc1ccc(-c2nnc(-c3cc4c(ccc5ccccc54)oc3=O)o2)cc1,inactive: 5.2%
23,CC(C)CN1CC(C(=O)O)CC1=O (configuration not stated),inactive: 1.52%
24,CNc1c2c(nn1C)CCCC2,inactive: -4.92%
25,COc1c2ccoc2nc2c(OC)cccc12,inactive: -5.55%

row,Compound,inhibition
1,CC(C)=CCC(C)(C)/C=N/NC(N)=O,inactive: -11.2%
2,Cc1ccccc1C(=O)Nc1ccccc1C(=O)NCC(C)C,inactive: -5.63%
3,O=C(/C=C/c1ccccc1)/C=C/c1ccccc1,active: 92.3%
4,CC(OC(=O)c1cc(=O)[nH]c2ccccc12)C(=O)c1ccccc1 (configuration not stated),inactive: 1.22%
5,CCc1cc2c(=O)c(-c3nc(C)cs3)c(CCCC(=O)O)oc2cc1O,inactive: -4.5%
6,Cc1cnc(C(=O)NCCc2ccc(S(=O)(=O)NC(=O)NC3CCCCC3)cc2)cn1,inactive: 4.38%
7,CC1(C)C2CCC1(C(=O)O)c1nc3ccccc3nc12 (configuration not stated),inactive: -0.64%
8,Cc1ccc(NCCC(=O)c2ccccc2)cc1Cl,inactive: -0.92%
9,CCSC(SCC)[C@H](O)[C@@H](O)[C@H](O)[C@H](O)CO,inactive: -2.61%
10,O=C(CCSc1ccccc1)N1CCCC1,inactive: -3.3%
11,COc1ccccc1C(CCN(Cc1ccccc1)C(C)=O)c1ccco1 (configuration not stated),inactive: 7.01%
12,COc1ccc2[nH]c(=O)c(CN(C(=O)c3ccco3)C(C)C)cc2c1,inactive: -0.16%
13,CCCCNc1ccc(C(=O)OCCN(C)C)cc1,inactive: 1.98%
14,CC(C)NS(=O)(=O)c1ccc(OCC(=O)Nc2cccc(F)c2)cc1,inactive: -6.57%
15,CCOC(=O)C1(Cc2cccc(Cl)c2)CCCN(C2CCN(C(C)=O)CC2)C1 (configuration not stated),inactive: -1.98%
16,CN(C)CC/C=C1\c2ccccc2COc2ccccc21,inactive: -9.28%
17,COC(=O)c1cc(-c2ccc(C)o2)nc2ccccc12,active: 72.8%
18,CC1(C)c2ccccc2N2CC(=O)NC21/C=C/c1ccco1 (configuration not stated),active: 50.2%
19,CC(C)CCc1noc(CN2CCC(CCN3CCCC3=O)CC2)n1,inactive: -3.52%
20,CCCCC(=O)O[C@]1(C(=O)CO)CC[C@H]2[C@@H]3CCC4=CC(=O)CC[C@]4(C)[C@H]3[C@@H](O)C[C@@]21C,inactive: 0.47%
21,Cc1oc2c(C)c3oc(=O)c4c(c3cc2c1C)CCCC4,inactive: 1.69%
22,CCc1cccc2c3c([nH]c12)C(CC)(CC(=O)O)OCC3 (configuration not stated),inactive: -13.7%
23,CCOC(=O)[C@H](CCc1ccccc1)N[C@@H](C)C(=O)N1CCC[C@H]1C(=O)O,inactive: -7.92%
24,O=C(Nc1ccc(N2CCOCC2)cc1)c1ccc(-c2ccccc2[N+](=O)[O-])o1,inactive: -0.91%
25,C[C@]12CC[C@@H]3c4ccc(O)cc4CC[C@H]3[C@@H]1C[C@@H](O)[C@@H]2O[C@@H]1O[C@H](C(=O)O)[C@@H](O)[C@H](O)[C@H]1O,inactive: 4.44%

row,Compound,inhibition
1,Cc1ccc2c(c1)C1(C(=O)N2)N2CCCC2C(C(=O)c2ccc3ccccc3c2)C12C(=O)Nc1ccccc12 (configuration not stated),inactive: -3.32%
2,CC(C)=CCC/C(C)=C/CC/C(C)=C/CC/C(C)=C/CC1=C(C)C(=O)c2ccccc2C1=O,inactive: 20.9%
3,CCC(=O)Nc1ccc(C(=O)N2CCN(C(=O)c3ccco3)CC2)cc1,inactive: -5.79%
4,O=C(Nc1ccc(F)c([N+](=O)[O-])c1)c1ccc2c(c1)OCCO2,inactive: -16.1%
5,COC(=O)c1ccc(OCCCCN2CC(C)OC(C)C2)cc1 (configuration not stated),inactive: 0.83%
6,Cc1ccc2c(c1)C1OCCC1C1N2C(=O)C2C(C(=O)O)C3C=CC21O3 (configuration not stated),inactive: -5.66%
7,COc1ccccc1Oc1c(C)oc2c(CN3CCN(CCO)CC3)c(O)ccc2c1=O,inactive: 1.57%
8,COc1ccccc1N=CC1=C(O)CC(c2ccccc2)CC1=O (configuration not stated),inactive: 4.76%
9,CCCC(=O)Nc1ccccc1NC(C)=O,inactive: -8.51%
10,COc1ccc(CNC(=O)c2cc3c(=O)n4ccccc4nc3n(Cc3cccnc3)c2=N)cc1,inactive: 4.08%
11,C[C@]12CCC(=O)C[C@@H]1CC[C@@H]1[C@@H]2CC[C@]2(C)C=CC[C@@H]12,inactive: -10.2%
12,OCCOCCN1CCN(C(c2ccccc2)c2ccc(Cl)cc2)CC1 (configuration not stated),inactive: -4.95%
13,COc1ccc(OC)c(NC2=C(Cl)C(=O)N(Cc3ccccc3)C2=O)c1,inactive: 11%
14,COc1ccc(CNC(=O)C2CCCN2C)cc1OC (configuration not stated),inactive: -1.26%
15,O=C(CN1C(=O)C2CCc3[nH]c4ccccc4c3C2C1=O)N1CCCC1 (configuration not stated),inactive: -2.9%
16,CCOC(=O)c1cc2c(nc1N)CC(C)(CC)OC2 (configuration not stated),inactive: 1.63%
17,Nc1cc(-c2ccncc2)c[nH]c1=O,active: 75.3%
18,Cc1cccc(C2=N/C(=C\c3cccnc3)C(=O)O2)c1,inactive: -14%
19,COc1ccc(C2C(C(=O)c3ccco3)=C(O)C(=O)N2CC2CCCO2)cc1 (configuration not stated),inactive: -0.65%
20,CS(=O)c1ccccc1O (configuration not stated),inactive: 6.47%
21,COC(=O)c1ccc(COc2ccc3c(C)c(C)c(=O)oc3c2C)o1,inactive: 6.94%
22,CC[N+]1(CC)CC2=Cc3ccccc3CC2C1 (configuration not stated),inactive: -2.96%
